The source of these data is PubChem BioAssay AID463173 (ICCB-Longwood Screening Facility, Harvard Medical School, 2010).

Out of some 52,000 compounds screened, about 4,300 (8.3%) were called active. Rule as the data show it: active = survival mostly below about 52% (no sharp cut-off); inactive = mostly above about 56%. This is one part of the list.

For this experiment, the system named is DeltatarO mutant. The experiment can be described thus: S. aureus survival, RN4220 and DeltatarO strains – OD600, teichoic acid synthesis inhibitors, primary screen (AID 463173). Conditions: S. aureus RN4220 wild type/DeltatarO growth, OD600, 18 h, stronger effect = lower value, screened at 18.75 µg/mL (by protocol).
As for `CN(Cc1ccccc1)C(=O)c1ccco1`, the survival is inactive: 84%.

For `CCc1ccc(Sc2cc(C(=O)NC(C)CC)c3ccccc3n2)cc1` (centres undefined), the survival was inactive: 66%.

Consider `COc1ccccc1-n1c(/C=C/c2c(C)n(C)c3ccccc23)nc2ccccc2c1=O`, for which the survival was inactive: 87%.

Turning to `CCOc1ccc(OCC(=O)Nc2nnc3n2CCS3)cc1`, the survival was inactive: 67%.

Turning to `COc1ccc(-c2noc(CSc3nnc(-c4ccncc4)n3-c3ccc(C)cc3)n2)cc1`, the survival was inactive: 55%.

Turning to `CCC(C)(C)n1nnnc1CN1CCC(NC(=O)COC)CC1`, the survival was inactive: 86%.

Take `CCc1ccccc1NC(=O)CSc1nc(-c2ccccc2OC)nc2c1Cc1c(CO)cnc(C)c1O2`: the survival was inactive: 73%.

Take `Cc1ccc2c(c1)cc1c(=O)n(CC(=O)NC3CCCCC3)nc(C)n12`: the survival is inactive: 104%.

On to `COC(=O)C(CCSC)NC(=O)c1cc2c(n(-c3ccc(C)cc3)c1=O)CC(C)(C)CC2=O` (centres undefined), for which the survival was inactive: 51%.

With `Cc1cccn2c(=O)c3cc(C(=O)NCc4ccccc4)c(=N)n(CCOCCO)c3nc12`, the survival is inactive: 55%.

On to `CCOC(=O)c1ccc(N=C2NC(=O)/C(=C/c3ccc(N4CCOCC4)cc3)S2)cc1`, for which the survival was inactive: 98%.

As for `CCOC(=O)CC1c2cc(OCC)c(OCC)cc2CCN1C(=O)Nc1cccc(Cl)c1` (centres undefined), the survival is active: 41%.

Consider `Cc1nc2nc(SCC(=O)NCCc3ccc(Cl)cc3)nn2c(C)c1Cc1ccccc1`, for which the survival was active: 46%.

For `COC(=O)c1sc2cccc(F)c2c1S(=O)(=O)N1CCN(c2ccc(F)cc2)CC1`, the survival is inactive: 81%.

In the case of `CCCSc1ncc(Cl)c(C(=O)Nc2nc3ccc(OCC)cc3s2)n1`, the survival is inactive: 63%.

On to `Cc1ccc(CNC(=O)c2ccc3c(=O)n(-c4ccccc4)c(=O)[nH]c3c2)cc1`, for which the survival is inactive: 84%.

Turning to `CC1=C(C(=O)Nc2ccccc2)C(c2ccc(C)o2)NC(=S)N1` (centres undefined), the survival is active: 61%.

As for `Cc1ccc(S(=O)(=O)c2nc(-c3cccc(C)c3)oc2N2CCN(c3ccccc3)CC2)cc1`, the survival is inactive: 114%.

Regarding `COc1cc(OC)c(NC(=O)NCc2ccc3c(c2)CCN3C(=O)c2ccccc2)cc1Cl`, the survival was inactive: 90%.

Consider `Cc1cc(C)cc(N2CC34C=CC(O3)C(C(=O)OCC(=O)NC3CCCC3)C4C2=O)c1` (centres undefined), for which the survival was inactive: 84%.

With `Cc1ccc(C)c(NC(=O)Cn2cc(C(=O)c3ccc(Cl)cc3)c(=O)c3ccc(C)nc32)c1`, the survival is inactive: 74%.

With `O=C(CC1C(=O)OCCN1Cc1ccccc1)Nc1ccc(F)cc1` (centres undefined), the survival is inactive: 172%.

Turning to `CC1CCN(S(=O)(=O)c2ccc(C(=O)Nc3sc4c(c3C(N)=O)CC(C)(C)NC4(C)C)cc2)CC1`, the survival is inactive: 71%.

As for `Cc1ccccc1Cn1cnc2ccccc21`, the survival is inactive: 77%.

As to `N#Cc1ccc(CSc2nc3c(c(=O)[nH]2)CCC3)cc1`, the survival was inactive: 67%.

On to `COc1cc(NC(=O)CSc2nc(-c3ccc(C)cc3)nc3c2Cc2ccccc2O3)cc(OC)c1`, for which the survival is inactive: 85%.

Turning to `O=C(NCc1ccccc1)c1ccc2c(c1)CCN2S(=O)(=O)c1ccccc1`, the survival was active: 36%.

On to `CCCc1ccc(S(=O)(=O)N2CCC(Oc3ccc(-n4cnnn4)cc3)CC2)cc1`, for which the survival is inactive: 91%.

In the case of `CNC(=O)c1ccc(Nc2nnc(-c3ccc(C)c(S(=O)(=O)N(C)C)c3)c3ccccc23)cc1`, the survival was inactive: 67%.

For the molecule `CCOC(=O)c1[nH]c(C)c(CCC(=O)NCc2ccccc2Cl)c1C`, the survival is inactive: 91%.

For `Cc1ccc(NC(=O)CSc2nc(=O)n(CCCN(C)C)c3c2CCC3)cc1F`, the survival is inactive: 71%.

As for `CCCCC(CC)CNC(=O)C1CCC(CNS(=O)(=O)c2cccc3nsnc23)CC1` (centres undefined), the survival is inactive: 65%.

With `Cc1cc(C)cc(OCCCn2c(CCNC(=O)C3CCCCC3)nc3ccccc32)c1`, the survival was inactive: 35%.

In the case of `COc1ccc(CCNC(=O)CCCn2c(=O)c3ccccc3n(Cc3c(C)cc(C)cc3C)c2=O)cc1OC`, the survival is inactive: 89%.

For the molecule `CCC(=O)N1c2ccc(S(=O)(=O)N3CCC(C)CC3)cc2CC1C` (centres undefined), the survival was inactive: 80%.

On to `COc1ccc(NC(=O)CSc2oc(-c3ccco3)nc2S(=O)(=O)c2ccc(Br)cc2)c(OC)c1`, for which the survival was inactive: 67%.

As for `COc1ccc(-c2cc(C(=O)NCc3ccc(F)cc3)c3c(-c4ccc(F)cc4)[nH]nc3n2)cc1OC`, the survival was inactive: 72%.

In the case of `CCc1ccc2oc(-c3cc(NC(=O)C(C)C)cc(C)c3O)nc2c1`, the survival is inactive: 92%.

For the molecule `CC(C)Cn1c(=O)c2sccc2n2c(CCCC(=O)NCc3ccccc3Cl)nnc12`, the survival is inactive: 76%.

Turning to `C(=N\N1CCN(c2ccccn2)CC1)/c1ccco1`, the survival was inactive: 100%.

Take `Cc1cccc(-c2nc3c4ccccc4nc(NCc4ccc(Cl)cc4)n3n2)c1`: the survival is active: 44%.

On to `CC(C)(C)OC(=O)N1C(C(=O)O)CSC1c1cccc(Br)c1` (centres undefined), for which the survival was inactive: 101%.

For the molecule `CC(=O)c1ccc(NC(=O)CSc2cn(CC(=O)N3CCCCCC3)c3ccccc23)cc1`, the survival is inactive: 101%.

For `Oc1ccc(Cl)cc1C1=Nc2ccccc2N=C(c2cccc(Br)c2)C1`, the survival was inactive: 151%.

For the molecule `CN1CCN(c2nc3c(S(=O)(=O)c4ccc(Br)cc4)nnn3c3ccsc23)CC1`, the survival is inactive: 58%.

For `COc1ccc(CCNc2nc(C)nc3c2nnn3Cc2ccccc2)cc1OC`, the survival is inactive: 90%.

Take `CCc1sc(Nc2cccc(Cl)c2C)nc1-c1cc2cccc(OC)c2oc1=O`: the survival is inactive: 67%.

Take `O=C(Nc1ccccc1Cl)c1cccs1`: the survival is inactive: 88%.

Turning to `COc1cccc(CN2CCc3nc(N4CCN(c5ncccn5)CC4)ncc3C2)c1`, the survival is inactive: 96%.

In the case of `O=C(CC1C(=O)OCCN1Cc1ccccc1)Nc1cccc(C(F)(F)F)c1` (centres undefined), the survival was inactive: 74%.

Regarding `COc1ccc(OC)c(NC(=O)c2cc(CN3CCCC3)on2)c1`, the survival was inactive: 101%.

`COc1cccc(CNC(=O)C2CCN(S(=O)(=O)c3cn(C)cn3)CC2)c1`: the survival is inactive: 72%.

In the case of `CC(=O)N1c2ccc(S(=O)(=O)N3CCCCCC3)cc2CC1C(=O)NCc1ccc(Cl)cc1` (centres undefined), the survival was inactive: 89%.

Take `C=C(C)C1CC=C(C)/C(=N/NC(=O)c2ccncc2)C1` (centres undefined): the survival was inactive: 124%.

For `CCOC(=O)N1CCC(NC(=O)c2cnn(-c3cccc(Cl)c3C)c2C2CCN(C(=O)OC(C)(C)C)CC2)CC1`, the survival was active: 20%.

`CCOc1ccc(NC(=O)Cn2ccn(-c3ccc(F)c(F)c3)c(=O)c2=O)cc1`: the survival was inactive: 103%.

Turning to `COc1ccc(CNC(=O)c2cccc(-n3cnc4cccnc43)c2C)cc1`, the survival is inactive: 90%.

As for `COc1cccc(C(=O)Nc2ccc(-c3cn4cccnc4n3)cc2)c1OC`, the survival was inactive: 127%.

For `CCOCCSc1c(C)cnc2c1c(=O)n(C)c(=O)n2C`, the survival was inactive: 90%.

On to `Cc1ccc2c(c1)cc(CN(Cc1ccco1)C(=O)c1ccccc1)c1nnnn12`, for which the survival was inactive: 98%.

For the molecule `Cc1ccc(N2C(=O)c3[nH]nc(-c4ccc(Cl)cc4)c3C2c2ccc(F)cc2)cc1` (centres undefined), the survival was active: 44%.

Regarding `COc1cc2ccccc2cc1C(=O)Nc1ccc(Cl)c(-c2nc3ccccc3o2)c1`, the survival was active: 40%.

As for `Cc1ccc(NC(=O)C(=O)NCC(c2cccnc2)N2CCN(C)CC2)cc1F` (centres undefined), the survival was inactive: 89%.

On to `COC(=O)C(CCSC)NC(=O)c1c(C)oc2ncn(CC(C)C)c(=O)c12` (centres undefined), for which the survival was inactive: 73%.

Turning to `CCOC(=O)c1ccc(NC(=O)c2ccc3c(c2)NC(=O)c2ccccc2S3)cc1`, the survival was inactive: 68%.

As for `Cc1nc2ccccc2c(=O)n1NC(=O)c1ccccc1`, the survival is inactive: 83%.

Regarding `Cc1c(Cl)cccc1NC(=O)CSc1ncccc1C(=O)Oc1ccccc1Cl`, the survival was inactive: 85%.

With `Cc1ccc(N(CC(=O)Nc2cc(C)cc(C)c2)S(=O)(=O)c2cccc3nonc23)cc1`, the survival was inactive: 53%.

Consider `COc1ccccc1NC(=O)CN1C(=O)C2(SCC(=O)N2c2ccc(C)c(C)c2)c2ccccc21` (centres undefined), for which the survival is inactive: 95%.

For the molecule `CC1=C(c2ccc(C)cc2)S(=O)(=O)N(Cc2ccc(C(=O)Nc3ccc(F)cc3C)cc2)C1=O`, the survival is inactive: 102%.

For the molecule `Cc1nc2ccc(NC(=S)NCCCO)cc2nc1C`, the survival was inactive: 73%.

Take `NS(=O)(=O)c1ccc(NC(=O)c2ccc3c(c2)CCN3S(=O)(=O)c2ccccc2)cc1`: the survival is active: 43%.

Take `O=CN1CCN(S(=O)(=O)c2ccc(S(=O)(=O)NC3CC3)cc2)CC1`: the survival was inactive: 72%.

On to `O=C(CSc1ccc(-c2ccc(F)cc2)nn1)N1CCOCC1`, for which the survival was inactive: 101%.

Consider `CCn1ccc2cc(S(=O)(=O)N3CCC(C(=O)NCCc4ccc(C)cc4)CC3)ccc21`, for which the survival is inactive: 81%.

`COc1ccc(NC(=O)CSCc2cnn(-c3ccccc3)c2-n2cccc2)cc1`: the survival was inactive: 100%.

For `CC(C)CNC(=O)Cc1ccccc1`, the survival is inactive: 65%.

On to `COc1ccc(Cc2nnc(SCC(=O)Nc3ccc(S(=O)(=O)N4CCCCCC4)cc3)o2)cc1`, for which the survival is inactive: 60%.

As to `COc1cc(OC)cc(C(=O)NCC(c2cccs2)S(=O)(=O)c2ccc(F)c(C)c2)c1` (centres undefined), the survival is inactive: 100%.

As for `COc1cc(C(=O)N2CCN(CCc3ccccn3)CC2)cc(OC)c1OC`, the survival is inactive: 66%.

With `Cc1ccc(CNC(=O)Cn2cc(C(=O)c3ccc(F)cc3)c(=O)c3ccc(C)nc32)cc1`, the survival is active: 52%.

Consider `CCOC(=O)C1CCN(C(=O)C2CCN(C3=NS(=O)(=O)C(c4ccc(C)c(C)c4)=C3C)CC2)CC1`, for which the survival was inactive: 77%.

Consider `Cc1cccc(C2CC(=O)Oc3c2c(=O)n(C)c2ccccc32)c1` (centres undefined), for which the survival was inactive: 170%.

Regarding `CCc1ccc(Cc2cnc(NC(=O)c3ccc4c(c3)CC(c3ccccc3)OC4=O)s2)cc1` (centres undefined), the survival was inactive: 51%.

Regarding `CC(C)c1ccc(C2N=C(N)Nc3nc4ccccc4n32)cc1` (centres undefined), the survival is inactive: 101%.

`CC(CC(=O)Nc1ccc(Br)cc1F)S(=O)(=O)c1ccc2c(c1)NC(=O)CO2` (centres undefined): the survival was inactive: 88%.

Take `COc1ccc(C2NCCO2)cc1OC` (centres undefined): the survival was inactive: 66%.

As for `CSc1ncc(Cl)c(C(=O)N(Cc2ccc(N(C)C)cc2)Cc2ccco2)n1`, the survival is inactive: 80%.

Turning to `O=C(O)CCc1ccc(-c2ccc(F)cc2)n1CCC(=O)O`, the survival was inactive: 103%.
